Results are given in words; binding and its absence hold for the method and conditions named. For some assays here: Binding seen in cells or lysates may run through a third protein. Some results given as binding are weak or reduced against the parent protein; the word gives no strength. For some assays here: Sequences can lack the tags named with a protein.
Experiments:
[1] = target: T1, TAK1 of the in vitro GST pull-down assay (UniProt O43318); assay: pull-down; in vitro GST pull-down of TAK1 with endogenous SHP-1 from RAW264.7 cells; only the target purified
T1 sequence: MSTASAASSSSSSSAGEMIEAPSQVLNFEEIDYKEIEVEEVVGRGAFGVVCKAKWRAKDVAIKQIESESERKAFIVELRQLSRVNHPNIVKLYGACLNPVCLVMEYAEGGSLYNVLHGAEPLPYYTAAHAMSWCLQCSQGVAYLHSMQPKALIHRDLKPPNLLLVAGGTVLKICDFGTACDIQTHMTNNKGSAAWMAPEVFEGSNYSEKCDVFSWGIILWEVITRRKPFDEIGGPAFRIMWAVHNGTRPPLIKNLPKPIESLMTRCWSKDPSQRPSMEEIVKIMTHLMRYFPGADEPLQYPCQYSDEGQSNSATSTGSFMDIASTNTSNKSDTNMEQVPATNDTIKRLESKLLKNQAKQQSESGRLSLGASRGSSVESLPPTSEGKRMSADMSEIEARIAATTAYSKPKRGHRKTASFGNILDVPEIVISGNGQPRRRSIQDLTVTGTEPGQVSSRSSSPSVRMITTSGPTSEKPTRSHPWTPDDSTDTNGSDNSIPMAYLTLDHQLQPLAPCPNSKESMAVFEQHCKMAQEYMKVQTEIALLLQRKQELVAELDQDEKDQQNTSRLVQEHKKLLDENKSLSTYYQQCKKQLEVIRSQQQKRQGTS

By UniProt entry, the sequences of proteins in these tests, tags left out. Where a name states a change or a piece, a line headed by the entry shows the natural chain unless it says otherwise.
UniProt P29351: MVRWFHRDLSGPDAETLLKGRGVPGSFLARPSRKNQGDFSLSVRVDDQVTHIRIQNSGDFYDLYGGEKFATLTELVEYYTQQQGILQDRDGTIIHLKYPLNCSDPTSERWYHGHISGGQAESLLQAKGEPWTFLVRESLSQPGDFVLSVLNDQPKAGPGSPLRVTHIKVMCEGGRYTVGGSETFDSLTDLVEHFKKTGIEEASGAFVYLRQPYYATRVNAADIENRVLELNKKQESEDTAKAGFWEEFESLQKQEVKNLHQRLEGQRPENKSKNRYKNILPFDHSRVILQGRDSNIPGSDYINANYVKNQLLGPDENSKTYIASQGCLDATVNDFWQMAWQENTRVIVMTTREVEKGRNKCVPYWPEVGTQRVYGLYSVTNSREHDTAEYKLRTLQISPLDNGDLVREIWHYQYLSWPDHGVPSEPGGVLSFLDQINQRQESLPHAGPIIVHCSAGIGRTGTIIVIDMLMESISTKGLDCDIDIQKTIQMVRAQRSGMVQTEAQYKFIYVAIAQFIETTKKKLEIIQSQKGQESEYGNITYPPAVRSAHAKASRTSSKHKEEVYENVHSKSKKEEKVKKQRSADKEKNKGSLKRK
UniProt P29350: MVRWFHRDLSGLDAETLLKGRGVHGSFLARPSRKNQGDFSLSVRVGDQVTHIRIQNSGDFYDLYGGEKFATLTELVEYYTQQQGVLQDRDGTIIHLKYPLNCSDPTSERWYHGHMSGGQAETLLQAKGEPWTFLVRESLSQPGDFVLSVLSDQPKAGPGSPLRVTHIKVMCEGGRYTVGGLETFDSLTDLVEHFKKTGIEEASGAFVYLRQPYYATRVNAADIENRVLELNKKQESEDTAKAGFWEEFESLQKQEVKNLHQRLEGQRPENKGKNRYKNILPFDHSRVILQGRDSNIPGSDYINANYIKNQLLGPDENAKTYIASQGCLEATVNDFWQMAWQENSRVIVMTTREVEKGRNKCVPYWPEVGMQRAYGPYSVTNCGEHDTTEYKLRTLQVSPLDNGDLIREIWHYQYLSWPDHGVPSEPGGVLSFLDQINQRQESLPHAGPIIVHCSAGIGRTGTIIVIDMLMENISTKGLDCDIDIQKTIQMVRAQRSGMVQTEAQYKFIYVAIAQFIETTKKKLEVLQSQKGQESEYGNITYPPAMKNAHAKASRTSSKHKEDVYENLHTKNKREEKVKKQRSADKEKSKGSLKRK

[2] = target: T1, TAK1 of the in vitro GST pull-down assay; assay: pull-down; in vitro GST pull-down of TAK1 with endogenous SHP-1 from mouse primary peritoneal macrophages; only the target purified
[3] = target: HA-Tir delivered by EDL933(ΔTir + HA-Tir) (enterohemorrhagic Escherichia coli (EHEC) strain EDL933) (UniProt Q7DB77); assay: co-IP
[4] = target: Flag-EDL933 Tir (wild-type) (enterohemorrhagic Escherichia coli (EHEC) strain EDL933) (UniProt Q7DB77); assay: co-IP
[5] = target: T1, TAK1 of the in vitro GST pull-down assay; assay: pull-down; in vitro GST pull-down of TAK1 with purified recombinant His-SHP-1; both purified
[6] = target: Flag-EDL933 Tir residues 334–558 (enterohemorrhagic Escherichia coli (EHEC) strain EDL933) (UniProt Q7DB77); assay: co-IP
[7] = target: Flag-EDL933 Tir residues 1–333 (enterohemorrhagic Escherichia coli (EHEC) strain EDL933) (UniProt Q7DB77); assay: co-IP

For “endogenous SHP-1 (from UniProt P29351 1-595) (enzyme)”, the binding [1] was “binds”, the binding [2] was “binds” and the binding [3] was “binds”.
With “SHP-1 residues 221–595 (from UniProt P29350 221-595) (domain or fragment)” the binding [4] was “binds”.
For “His-SHP-1 (from UniProt P29350 1-595) (enzyme)”, the binding [5] was “binds”.
“SHP-1 residues 1–242 (from UniProt P29350 1-242) (domain or fragment)” was tested, and the binding [4] was “no binding”.
“HA-SHP-1 (from UniProt P29350 1-595) (enzyme)” was tested, and the binding [6] was “binds”, the binding [4] was “binds” and the binding [7] was “no binding”.
“SHP-1 (C453S) (from UniProt P29350 1-595) (enzyme)” was tested, and the binding [4] was “no binding”.
“SHP-1 residues 107–595 (from UniProt P29350 107-595) (domain or fragment)” was tested, and the binding [4] was “binds”.
